Out of some 340,000 compounds screened, about 6,900 (2%) were called active. Rule as the data show it: active = inhibition above about 30%; inactive = below that, where a call was filed. This is a selection; strong and weak results do not stand in their true shares. The source gives no active or inactive call for entries shown without one.

Our source for the inhibition values is PubChem BioAssay AID485344 (National Center for Advancing Translational Sciences (NCATS), 2010).

The test addresses D(2) dopamine receptor (Homo sapiens) (UniProt P14416). Description: HTS Assay for Allosteric Antagonists of the Human D2 Dopamine Receptor: Primary Screen for Antagonists. Also: 0% is about no effect. Particulars: HEK293 TREx D2 cells, calcium flux, dopamine EC80; at 10 µM; stronger effect = higher value. The method, boiled down: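 Calcium flux kinetic readout in an inducible HEK293 TREx D2 line plated overnight at 30 C. After 180 s compound exposure, an EC80 dopamine challenge follows with another 180 s kinetic read to detect antagonism.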
Chain of UniProt P14416 (P14416 whole entry, looked up): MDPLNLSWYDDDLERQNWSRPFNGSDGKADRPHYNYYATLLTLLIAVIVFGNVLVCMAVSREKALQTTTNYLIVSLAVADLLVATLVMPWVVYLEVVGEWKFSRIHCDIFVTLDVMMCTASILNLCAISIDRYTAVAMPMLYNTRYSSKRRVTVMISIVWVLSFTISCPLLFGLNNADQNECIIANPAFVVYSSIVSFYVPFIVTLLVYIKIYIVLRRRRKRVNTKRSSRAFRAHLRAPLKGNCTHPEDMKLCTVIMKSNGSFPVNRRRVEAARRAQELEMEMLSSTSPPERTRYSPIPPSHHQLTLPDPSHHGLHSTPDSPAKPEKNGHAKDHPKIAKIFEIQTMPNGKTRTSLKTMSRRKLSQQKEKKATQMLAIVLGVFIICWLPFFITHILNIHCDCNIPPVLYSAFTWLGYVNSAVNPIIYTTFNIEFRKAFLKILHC
Background: Calcium flux is commonly read through the fluorescence of an indicator in the cells.
For `CC1CCN(CCOCCSc2ccc(Cl)cc2)CC1`, the inhibition was active: 44.9%.
With `COc1ccc(NC(=O)c2c(NC(=O)COc3ccccc3)sc3c2CCC(C)C3)cc1` (centres undefined), the inhibition turned out to be 2.75%.
For `CCCCOc1ccc(S(=O)(=O)NNC(=O)c2cc3ccccc3o2)cc1` the value was active: 44.2%; for `O=C(Nc1ccccc1C(F)(F)F)c1ccc2oc(=O)c(S(=O)(=O)c3ccc(F)cc3)cc2c1`, 0.766%; for `Cc1ccccc1Cn1c2ccccc2c2cnn(CC(=O)NC3CCC(C)CC3)c(=O)c21` (centres undefined), -4.11%.
`COc1cc2c(=O)n(CCC(=O)NCC3CCCO3)c(=O)n(CC(=O)Nc3ccc(C)cc3C)c2cc1OC` (centres undefined): the inhibition came out at 0.281%.
As for `COc1cc(NC(=O)C(CC(C)C)NS(=O)(=O)c2ccc3c(c2)CCN3C(C)=O)cc(OC)c1` (centres undefined), the inhibition was -1.16%.
Turning to `CCc1ccc(CNCc2c(C(=O)O)n(Cc3ccc(C)cc3)c3cc(C)ccc23)cc1`, the inhibition stood at 4.35%.
For `Cc1ccc(NC(=O)CC(C)S(=O)(=O)c2ccc3c(c2)NC(=O)CO3)c(Cl)c1` (centres undefined) the value was 15.5%; for `CC(C)c1ccc2oc(-c3ccc(NC(=O)c4cccc(Br)c4)cc3)nc2c1`, -7.14%; for `Cc1ccc2nc(-c3ccc(NC(=O)c4ccc(S(C)(=O)=O)cc4)cc3)sc2c1`, -5.06%.
For `CCOC(=O)c1ccccc1NC(=O)COc1ccccc1-c1nnc(-c2ccccc2)o1` the value was 10.8%; for `COc1ccc(CNC(=O)c2ccc(NC(=O)N3CCSc4ccccc43)cc2)cc1`, -2.92%.
As for `CSc1nn(Cc2cccc(C)c2)c(N)c1S(=O)(=O)c1ccccc1`, the inhibition is -7.58%.
For `COc1ccccc1/C=C1\SC(=S)N(CCC(=O)Nc2nnc(C)s2)C1=O`, the inhibition was active: 30.8%.
`Cc1c(C(=O)Nc2cccc(-c3nc4ccccc4s3)c2)oc2ccccc12`: the inhibition is -5.91%.
On to `CCOc1ccc2nc(N3CCCC(C(=O)Nc4cc(Cl)c(OC)cc4OC)C3)sc2c1` (centres undefined), for which the inhibition was -7.41%.
Consider `CCCCCCSc1nnc2c(n1)OC(C)Nc1ccc(Br)cc1-2` (centres undefined), for which the inhibition stood at 11.7%.
In the case of `O=c1ccc(-c2ccccc2)nn1Cc1ccc(F)cc1Cl`, the inhibition worked out at 20.5%.
For `C=CCC1Cc2c(cccc2[N+](=O)[O-])C(CC=C)N1` (centres undefined), the inhibition is active: 36.1%.
On to `Cc1ccc(Cn2ccnc2SCC(=O)Nc2nc3ccccc3s2)cc1`, for which the inhibition was -18%.
With `NS(=O)(=O)c1ccc(NC(=O)C(=O)Nc2ccc3nc4n(c(=O)c3c2)CCCCC4)cc1`, the inhibition amounted to 0.771%.
As for `Cc1cc(NC(=O)C2CCN(S(=O)(=O)c3cccc4nsnc34)CC2)ccc1Br`, the inhibition was 25.1%.
For `Cc1cccc(C(=O)N2c3nc(-c4ccco4)nn3C3(CCCCC3)[C@@H]3CCCC[C@@H]32)c1`, the inhibition was 21.8%.
Regarding `Cc1cccc(-n2ncc3c(N4CCCC(C)C4)ncnc32)c1` (centres undefined), the inhibition is 8.19%.
Consider `C#CCOc1ccc(C2CC(=O)Nc3c2c(C)nn3-c2nc(C)cc(C)n2)cc1` (centres undefined), for which the inhibition is -3.08%.
Take `COc1cc2c(cc1OC)CN(Cc1ccc(C)cc1)CC2`: the inhibition was active: 56.2%.
Consider `CCc1ccc(C(=O)c2cn(CC(=O)Nc3ccc(OC)cc3)c3cc4c(cc3c2=O)OCO4)cc1`, for which the inhibition was -14%.
Take `NC(=O)C1(N2CCCCC2)CCN(C(=O)Nc2ccc(F)cc2F)CC1`: the inhibition is -0.144%.
The same measure for `CCC1CN(S(=O)(=O)c2cc(-c3onc(C)c3C)ccc2C)c2cc(Cl)ccc2O1` (centres undefined): 6.16%.
As for `O=C(Nc1cccc(CNCCc2c[nH]c3ccccc23)c1)c1ccccc1Cl`, the inhibition is active: 72.4%.
The same measure for `Clc1ccc(CN2C3=NCCCN3c3ccccc32)cc1Cl`: active: 75.5%; for `CCOc1ccc(N=C2C(=O)Nc3ccc(C)c(Br)c32)cc1`: active: 42.4%; for `CCOC(=O)N1CCC2(CC1)OC(=O)C(C)=C2C(=O)NCc1cccc(F)c1`: 6.7%.
As to `Cc1cccc(NC(=O)CN2C(=O)c3cccc4cccc2c34)c1C`, the inhibition amounted to 2.12%.
In the case of `O=C(Nc1cccc(Cl)c1)NC1CC2CCC(C1)N2Cc1cccs1` (centres undefined), the inhibition was active: 73.4%.
With `CCCN1CCN(c2ncnc3sc(C(=O)Nc4c(C)cc(C)cc4C)c(C)c23)CC1`, the inhibition was determined as 22.1%.
Take `COc1cccc(NC(=O)CSc2nc(=O)n(Cc3ccncc3)c3c2CCC3)c1`: the inhibition was 19.1%.
Turning to `Cc1cc(C)c(Cn2c(C3CC(=O)N(c4ccc(F)cc4)C3)nc3ccccc32)c(C)c1` (centres undefined), the inhibition was -1.24%.
Regarding `CC(C)CCN(C(=O)Nc1ccccc1)C(C)c1cccs1` (centres undefined), the inhibition turned out to be 14.1%.
`CC(C)OC(=O)c1c(-c2ccccc2)c(-c2ccccc2)nn(C)c1=O`: the inhibition turned out to be 20.3%.
As for `CCOC(=O)c1ccc(NC(=O)CCn2ccc(C)n2)cc1`, the inhibition is -0.654%.
In the case of `CCn1c2ccccc2c2cc(/C=N/NC(=O)c3ccccc3C)ccc21`, the inhibition is active: 36.2%.
The same measure for `Cc1ccc(S(=O)(=O)C(CNC(=O)C(=O)NCc2ccccc2C)c2cccs2)cc1` (centres undefined): 18.5%; for `COc1ccc(CCNC(=O)C2CCN(S(=O)(=O)c3c(C)noc3/C=C/c3ccc(C)cc3)CC2)cc1OC`: 22.4%.
Turning to `O=C(NCC(c1ccco1)N1CCCC1)c1cn(-c2ccccc2)nc1-c1ccc(F)cc1` (centres undefined), the inhibition is active: 75.9%.
For `CNS(=O)(=O)c1cn(CC(=O)Nc2ccc(C(C)=O)cc2)cc1S(=O)(=O)NC`, the inhibition turned out to be 1.97%.
As to `CC(=O)N1CCc2cc(CNC(=O)c3ccccc3Br)ccc21`, the inhibition was -5.34%.
The same measure for `Cc1ccc(CN2CCN(C3CCN(C(=O)Nc4ccc(C)cc4Cl)CC3)C(=O)C2=O)cc1`: 25.2%; for `CCCCNS(=O)(=O)c1ccc(C)c(-c2nnc3c4ccccc4c(C)nn23)c1`: 7.19%.
With `O=C(Nc1ccc(Br)cc1)c1ccc(F)c(S(=O)(=O)N2CCc3ccccc32)c1`, the inhibition was -0.147%.
For `O=C(NCc1cccs1)C1CCN(C(=O)N2CCOc3ccc(Cl)cc32)CC1` the value was 12.8%; for `CCN(Cc1ccccc1)C(=O)C1CCN(Cc2ccc(SC)cc2)CC1`, active: 80.6%.
In the case of `CC(=O)N1CCc2cc(S(=O)(=O)NC(Cc3ccccc3)C(=O)NCc3ccc(C)cc3)ccc21` (centres undefined), the inhibition came out at 5.64%.
The same measure for `Cc1ccc(CN2CCN(C3CCNCC3)C(=O)C2=O)cc1`: 1.85%; for `COc1ccc(NC(=O)C2CCN(c3ccc(Sc4ccc(C)cc4)nn3)CC2)c(OC)c1`: 5.4%; for `O=C(Nc1nccs1)C1CCCN(S(=O)(=O)c2cccc3cccnc23)C1` (centres undefined): active: 39.2%.
Regarding `O=C(CSc1ccc(-c2ccccn2)nn1)Nc1ccc(F)cc1F`, the inhibition came to 0.621%.
As to `Cc1ccc(S(=O)(=O)N2CCc3cc(C(=O)Nc4c(F)cccc4F)ccc32)cc1`, the inhibition was -1.38%.
As for `CCC(C(=O)N1CCN(c2cc(C)ccc2C)CC1)n1nc(C)n2c(cc3occc32)c1=O` (centres undefined), the inhibition was -4.89%.
The same measure for `CCOC(=O)Cn1c(=O)n(C2CCCCC2)c2nc(-c3ccc(C(C)C)cc3)nc(C(N)=O)c21`: -23.6%; for `Cc1ccc(NC(=O)c2nc(S(=O)(=O)Cc3ccccc3C)ncc2Cl)cc1C`: active: 34.3%.
Take `COc1ccccc1NC(=O)CSC1=Nc2ccccc2C2=NC(CC(=O)NCc3ccccc3)C(=O)N12` (centres undefined): the inhibition amounted to 2.86%.
In the case of `CCOc1ccc(NC(=O)C2CCCN(c3nnc(C)c4c(C)n(-c5ccccc5)nc34)C2)cc1` (centres undefined), the inhibition came out at 0.181%.
For the compound `COCCn1cc(C(=O)NCCCOC(C)C)c2c3ccccc3n(C)c2c1=O`, the inhibition was 15.3%.
For the compound `Cc1ccccc1C(=O)NC(=S)Nc1ccccc1C(F)(F)F`, the inhibition is active: 50.4%.
Take `COc1ccc(CNC(=O)Cc2ccc(NC(=O)N3CCSc4ncccc43)cc2)cc1`: the inhibition was found to be 3%.
The same measure for `O=c1[nH]c(C2CCCN(S(=O)(=O)c3ccc(F)cc3)C2)nc2c1nnn2Cc1ccc(F)cc1` (centres undefined): active: 67.8%; for `CCOC(=O)c1noc2nc(C)n(Cc3cccc([N+](=O)[O-])c3)c(=O)c12`: 17.3%.
With `Cc1nnc(SCC(=O)NCc2ccccc2Cl)c2nn(-c3ccccc3)c(C)c12`, the inhibition is 0.695%.
Consider `CCc1nn(CC(=O)NC(C)CCc2ccccc2)c(=O)c2cc3c(OC)cccc3n12` (centres undefined), for which the inhibition came out at 10.8%.
Consider `CCc1ccc(-n2nc(C)c3c(C)cc(=O)n(CC(=O)Nc4ccc(F)cc4C)c32)cc1`, for which the inhibition is -3.57%.
For `Cc1ccc(CNC(=O)CCNS(=O)(=O)c2cccc3nsnc23)cc1` the value was -0.431%; for `CCn1cc(C(=O)N(C)c2ccc(C(C)C)cc2)c2cc(OC)c(OC)cc2c1=O`, -17.6%; for `Cc1c(CCC(=O)N2CCCCC2)c(=O)oc2cc3occ(C(C)(C)C)c3cc12`, 5.19%.
For `Cc1ccc2nc(NC(=O)CSc3ncc(C(=O)Nc4ccc(F)cc4)c(=O)n3C)sc2c1` the value was 6.22%.
For `COc1ccccc1N1CCN(C(=O)CN2C(=O)COc3ccc(S(=O)(=O)N4CCCC4)cc32)CC1`, the inhibition was found to be 1.01%.
The same measure for `CCOc1ccc(C2CC(=O)c3c([nH]c(C(=O)OC4CCC(C)CC4)c3C)C2)cc1` (centres undefined): -3.65%.
On to `CCc1nc(SCc2cc(=O)c3cc(C)ccc3[nH]2)n[nH]1`, for which the inhibition worked out at 27.4%.
Take `CCc1cccc(NC(=O)CSc2nc3ccsc3c(=O)n2CC)c1`: the inhibition is -7.95%.
For the compound `Cc1ccc(CNC(=O)Cn2c(=O)n(Cc3ccccc3)c(=O)c3sc4ccccc4c32)cc1`, the inhibition was -10.6%.
`Cc1ccc(CN(Cc2cccn2-c2nnc(N3CCCC3=O)s2)C(=O)Nc2ccccc2C(F)(F)F)cc1`: the inhibition came out at 9.47%.
As for `COc1ccc(Nc2c3c(nc4ccc(NC(=O)/C=C/c5cccc(OC)c5OC)cc24)CCCC3)cc1OC`, the inhibition came out at 14.3%.
For `CCOC(=O)c1cc(NC(=O)c2ccc(Cl)cc2)c(=O)n2c1oc1ccccc12` the value was -4.31%.
With `O=C(CN1C=NS(=O)(=O)c2ccc(C(F)(F)F)cc21)Nc1cccc(C(F)(F)F)c1`, the inhibition is -6.79%.
For `O=S(=O)(c1ccc(Cl)cc1)c1nc(-c2ccccc2)oc1N1CCN(c2ccccc2)CC1` the value was 7.11%; for `O=C(Nc1ccc(Br)cc1)c1cccc(C(=O)Nc2ccc(Br)cc2)c1`, -10%.
Consider `COc1ccccc1-c1ccc(/C=C2/C=C(CC(C)C)OC2=O)o1`, for which the inhibition is active: 33.5%.
Consider `COC(=O)c1ccccc1NC(=O)c1ccc2c(=O)n3c(nc2c1)CCCCC3`, for which the inhibition is -0.96%.
Regarding `CCCN1CCN(c2cc3c(cc2F)c(=O)c(S(=O)(=O)c2ccc(Cl)cc2)cn3C)CC1`, the inhibition is -6.24%.
As for `Cc1cc(C)c2sc(NC(=O)c3ccc(S(=O)(=O)N4CCOCC4)cc3)nc2c1`, the inhibition amounted to 1.79%.
For `COc1ccc(C(=O)NCC(c2ccc(N(C)C)cc2)N2CCc3ccccc32)cc1` (centres undefined) the value was -7.58%.
For `Cn1c(=O)n(C)c2cc(N3CCOCC3)c(NC(=O)c3c(F)cccc3F)cc21`, the inhibition turned out to be 17.4%.
With `CC1CCCN(S(=O)(=O)c2ccc(S(=O)(=O)N3CCC4(CC3)OCCO4)cc2)C1` (centres undefined), the inhibition is active: 39.7%.

The term inhibition denotes the change of the read-out against control, counted positive when it falls.
